Measured values: PubChem BioAssay AID1745845 (National Center for Advancing Translational Sciences (NCATS), 2022)
“And” between values parts separate entries of the source, which are not always exact repeats. Equal entries are not always repeated. The whole screen tested about 360,000 compounds, of which about 2,600 (0.72%) were called active. The shares of active, inactive and inconclusive entries below differ from those in the screen. Calls come from the whole dose curve; as a rule, active = well fitted inhibition curve with a large enough effect; inconclusive = small, poorly fitted or top-dose-only effect; inactive = no such curve, though single readings can be large or run the other way. Where the call is inconclusive, the potency comes from a doubtful curve fit.

Assay: Primary qHTS for Inhibitors of ATXN expression; note: nearly all actives have a fitted effect of over 55% in size
Settings: HEK-293 ATXN2-luciferase reporter, luminescence, 24 h; activity change, negative = inhibition: at 57 µM (top of the series)
Procedure, shortened: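 ATXN2-luciferase reporter cells (luciferase flanked by upstream and downstream ATXN2 gene portions) were treated 24 h at 37 °C with compounds at up to 57 uM. SteadyGlo luminescence gave expression; GF-AFC fluorescence gave viability.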
% is set by controls: 0 for no effect and ±100 for the full control effect; potency is the fitted concentration of half-maximal effect; tags give direction and shape of the fitted curve.

SMILES | activity change, negative = inhibition | Potency
CN1/C(=C/C=C(C#N)C#N)C(C)(C)c2ccccc21 | inactive: 13.1% [at 11.3 µM] | 
OC(c1cc(C(F)(F)F)nc2c(Cl)cc(Cl)cc12)C1CCCCN1 (stereo not given) |  | inconclusive: 17.8 µM [inhibitor, single point]
Cc1ccsc1/C=N/Nc1nc(=O)[nH]nc1C |  | inconclusive: 39.8 µM [inhibitor, single point]
CC(=O)N(C)c1ccc(N=Nc2ccc3ncccc3c2)cc1 |  | inconclusive: 22.4 µM [inhibitor, single point]
C[C@@H](CN1CC(=O)NC(=O)C1)N1CC(=O)NC(=O)C1 |  | inconclusive: 21.7 µM [inhibitor, partial curve]
CCCCCCCN1C2=NCCCN2c2ccccc21 |  | inactive
O=S(=O)(c1ccc(Cl)cc1)N1CCC(O)(CN2CCN(Cc3ccccc3)CC2)CC1 | inconclusive: -39.7% [inhibitor] | 
O=C(Nc1nnc(S(=O)(=O)N2CCCc3ccccc32)s1)c1cccc(F)c1 |  | inconclusive: 39.8 µM [inhibitor, single point]
COc1ccc(N(C(=O)c2cccc(C)c2)S(=O)(=O)c2ccc(C)cc2)cc1 |  | inactive
CCOc1ccccc1N(CC(=O)N1CCC(C)CC1)S(=O)(=O)c1ccc(C)cc1 |  | inactive
O=C1/C(=C\c2ccccc2)CN(C(=O)CCN2CCCCC2)C/C1=C/c1ccccc1 |  | inconclusive: 39.8 µM [inhibitor, single point]
O=C(NCCCn1ccnc1)/C(=C/c1cccs1)NC(=O)c1ccco1 |  | inconclusive: 37.7 µM [inhibitor, partial curve, poor fit]
Cc1[nH]n(-c2ccccc2)c(=O)c1/C=N/NC(=O)c1ccoc1C |  | inconclusive: 20 µM [inhibitor, single point]
O=C(c1ccc(Cl)cc1)N1CCN(c2ccnc3cc(Cl)ccc23)CC1 |  | inconclusive: 11.9 µM [inhibitor, partial curve]
O=C(Nc1ccc2c(c1)OCO2)C1Cc2c(-c3ccccc3Oc3ccccc3)ccnc2O1 (stereo not given) |  | inconclusive: 15.8 µM [inhibitor, single point]
CCN(C(=O)C1CCCN1S(=O)(=O)c1ccc2c(c1)n(C)c(=O)c(=O)n2C)c1ccccc1 (stereo not given) |  | inconclusive: 39.8 µM [inhibitor, partial curve, poor fit]
Cc1ccc(O)c(CNc2cccc(C)n2)c1 |  | inactive
CC1CCC(C(C)C)C(OC(=O)Cn2c(-c3ccc(Br)cc3)[n+](C)c3ccccc32)C1 (stereo not given) |  | inconclusive: 22.4 µM [inhibitor, single point]
Cc1oc2ccc(O)c(CN3CCCCC3)c2c1C(=O)Nc1cccc(C(F)(F)F)c1 |  | active: 28.2 µM
CC(C(=O)c1ccc(-c2ccccc2)cc1)[n+]1cccc(C(N)=O)c1 (stereo not given) |  | inactive
COc1ccc(NC(=O)COC(=O)c2ccc(OC)c(S(=O)(=O)N3CCCC3)c2)cc1OC |  | inconclusive: 3.16 µM [inhibitor, partial curve, poor fit]
CC1C(=O)Nc2ccc(S(=O)(=O)N3CCN(c4cccc(Cl)c4)CC3)cc2NC1=O (stereo not given) |  | inconclusive: 23.8 µM [inhibitor, partial curve, poor fit]

SMILES | activity change, negative = inhibition | Potency
C[C@@H]1CN([C@@H](C)CO)S(=O)(=O)c2ccc(-c3cccc(C#N)c3)cc2O[C@@H]1CN(C)C(=O)c1ccc(F)cc1 |  | inconclusive: 35.5 µM [inhibitor, partial curve, poor fit]
O=C(CCc1nc2cccnc2n1-c1ccccc1)Nc1ccc(Cl)c(Cl)c1 |  | inconclusive: 20 µM [inhibitor, single point]
Cc1ccc(C(=O)NCCNc2ncc(C(F)(F)F)cc2Cl)cc1[N+](=O)[O-] |  | inconclusive: 6.31 µM [inhibitor, partial curve, poor fit]
CCOc1cc(CNCCc2ccc(S(N)(=O)=O)cc2)cc(Cl)c1OCc1ccccc1 |  | active: 20 µM
CNCCC(Oc1ccc(C(F)(F)F)cc1)c1ccccc1 (stereo not given) |  | active: 28.2 µM and inconclusive: 25.1 µM [inhibitor, single point]
CCn1c(=O)sc2cc(NS(=O)(=O)c3ccc(C)cc3)ccc21 |  | inactive
Cc1ccc2nc(NC(=O)/C=C/c3ccc4c(c3)OCO4)sc2c1 |  | inconclusive: 4.74 µM [inhibitor, full curve]
CCOC(=O)c1ccc(NC(=O)c2ccccc2[N+](=O)[O-])cc1 |  | inactive
CCc1nnc(NC(=O)c2ccc(S(=O)(=O)N(C)c3ccccc3)cc2)o1 |  | inconclusive: 39.8 µM [inhibitor, single point]
COCCN1CCN(C(=O)c2cc(COc3ccc(F)c(F)c3)on2)CC1 |  | inactive
CSCCC(NC(=O)COc1ccccc1)C(=O)N1CCN(c2cccc(C(F)(F)F)c2)CC1 (stereo not given) |  | inconclusive: 31.6 µM [inhibitor, single point]
CCC(=O)N1CCN(c2ccc(Cl)cc2NC(=O)c2ccc([N+](=O)[O-])o2)CC1 |  | inconclusive: 3.55 µM [inhibitor, partial curve, poor fit]
COC(=O)c1ccc(-n2c(C)cc(/C=N/Nc3nc(C)cc(=O)[nH]3)c2C)cc1 |  | inactive
Cc1nc2ccc([N+](=O)[O-])cc2nc1C |  | inactive
COc1ccc(-c2nnc(NC(=O)c3ccc(F)cc3)o2)cc1 |  | inactive
Cc1nn(Cc2c(Cl)cccc2Cl)c(C)c1NC(=O)c1cn(-c2ccccc2)nc1-c1ccccc1 |  | active: 12.6 µM
CN1CCN(S(=O)(=O)c2cccc(C(=O)NCCC3=CCCCC3)c2)CC1 |  | inactive
COc1ccc(OCCn2cc(/C=C(\C#N)C(=O)NCc3ccco3)c3ccccc32)cc1 |  | inconclusive: 25.1 µM [inhibitor, single point]
Cc1cc(C)nc(NC(N)=NCCc2ccccc2)n1 |  | inconclusive: 15.8 µM [inhibitor, partial curve]
CCCCC(=O)Nc1nn(CC(C)C)c2nc3ccccc3cc12 |  | inconclusive: 35.5 µM [inhibitor, partial curve, poor fit]
O=C(NC(c1cccnc1)C(F)(F)F)c1cc(COc2ccc3c(c2)CCCC3)on1 (stereo not given) |  | inactive
COc1ccc(Cl)cc1NC(=O)c1nnn(Cc2cccc(C(F)(F)F)c2)c1N |  | inconclusive: 1.26 µM [inhibitor, full curve, poor fit]

SMILES | activity change, negative = inhibition | Potency
C#CCN1C(C)=C(C(=O)OC)C(c2cccc([N+](=O)[O-])c2)C(C(=O)OCC)=C1C (stereo not given) |  | inconclusive: 31.6 µM [inhibitor, partial curve, poor fit]
Cn1c(=O)c2c(nc(CN3CCOCC3)n2CCCO)n(C)c1=O |  | inconclusive: 20 µM [inhibitor, partial curve, poor fit]
COc1cc(S(=O)(=O)N2CCCCC2)ccc1NC(=O)c1ccccc1Cl |  | inactive
S=C(Nc1ccc(Br)cc1)N1CCN(c2ccccn2)CC1 |  | inactive
Cc1nc(N)nc(N)c1/C=C/C(C)(C)c1ccc(Cl)cc1 |  | inconclusive: 4.23 µM [inhibitor, partial curve, poor fit]
COc1ccc(COC(=O)C2=C(C)NC(=O)NC2c2cccc(Br)c2)cc1 (stereo not given) |  | inconclusive: 25.1 µM [inhibitor, partial curve, poor fit]
C=CC[C@@H](CC(=O)N(CCO)Cc1ccccc1)C(=O)N[C@H](COC(=O)[C@@H](CC=C)CC(=O)OC(C)(C)C)C(C)(C)C |  | inconclusive: 39.8 µM [inhibitor, single point]
Cc1onc(-c2ccccc2)c1C(=O)NNC(=S)NC(=O)/C=C/c1ccccc1 |  | inconclusive: 39.8 µM [inhibitor, partial curve, poor fit]
O=C(N/N=C/c1c(O)n(-c2ccccc2Cl)c(=O)c2ccccc12)C1COc2ccccc2O1 (stereo not given) |  | inconclusive: 39.8 µM [inhibitor, partial curve, poor fit]
Cc1cc(C)nc(NC(=O)c2ccc(Br)cc2)n1 |  | inactive
CCn1c(SCC(=O)N/N=C/C=C/c2ccco2)nc2ccccc21 |  | inactive
COc1cc2[nH]c(=O)n(CCCC(=O)NCc3ccc(Cl)cc3)c(=O)c2cc1OC |  | inactive
CCc1ccccc1Nc1nn2c(=O)c3ccc(C(=O)NC(C)c4ccccc4)cc3nc2s1 (stereo not given) |  | inconclusive: 2.82 µM [inhibitor, partial curve, poor fit]
CCCC[C@@H]1CNC(=O)C(=O)N1CCCCC1CCCCC1 |  | inactive
O=C(Nc1ccc(OC(F)(F)F)cc1)c1ccc2c(c1)no[n+]2[O-] |  | inconclusive: 37.7 µM [inhibitor, single point]
c1ccc(-c2oc3ncnc(NCCCN4CCOCC4)c3c2-c2ccccc2)cc1 |  | inconclusive: 17.8 µM [inhibitor, partial curve, poor fit]
C[C@H](CO)N1C[C@H](C)[C@H](CN(C)Cc2cccc(O)c2)OCc2ccccc2-c2c(n(C)c3ccccc23)C1=O |  | inconclusive: 28.2 µM [inhibitor, single point]
O=C(NCc1ccccc1Cl)C1CCCN(C(=O)Nc2ccc(F)cc2)C1 (stereo not given) |  | inconclusive: 12.6 µM [inhibitor, partial curve, poor fit]
CN(CC(=O)Nc1ccc(Cl)c(C(F)(F)F)c1)C(=O)c1cc(-c2ccncc2)nc2ccccc12 |  | inconclusive: 25.1 µM [inhibitor, single point]
COc1cc(NC(=O)Nc2nc(C(N)Cc3ccc(C(F)(F)F)cc3)cs2)cc(OC)c1OC (stereo not given) |  | inconclusive: 39.8 µM [inhibitor, single point]
CCN(CC)S(=O)(=O)c1ccc(Cl)c(C(=O)Nc2ccc(Cl)cc2[N+](=O)[O-])c1 |  | inactive
